{"source": "PubChem BioAssay AID588453", "about": "(National Center for Advancing Translational Sciences (NCATS), 2011)", "note": "In all, about 390,000 compounds went through this assay and about 4,000 (1%) were called active. This list was built around the results that the source calls inconclusive (neither active nor inactive); the mix of calls is not that of the screen. The call rests on the fitted dose curve; in most records, active means well fitted inhibition curve with a large enough effect; inconclusive means small, poorly fitted or top-dose-only effect; inactive means no such curve, though single readings can be large or run the other way. Where the call is inconclusive, the potency comes from a doubtful curve fit. Potency means the concentration at half of the fitted maximal effect; tags describe the fitted curve by direction and shape."}
{"biological_target": "Thioredoxin reductase 1, cytoplasmic (Rattus norvegicus) (UniProt O89049)", "sequence (O89049 whole entry, looked up)": "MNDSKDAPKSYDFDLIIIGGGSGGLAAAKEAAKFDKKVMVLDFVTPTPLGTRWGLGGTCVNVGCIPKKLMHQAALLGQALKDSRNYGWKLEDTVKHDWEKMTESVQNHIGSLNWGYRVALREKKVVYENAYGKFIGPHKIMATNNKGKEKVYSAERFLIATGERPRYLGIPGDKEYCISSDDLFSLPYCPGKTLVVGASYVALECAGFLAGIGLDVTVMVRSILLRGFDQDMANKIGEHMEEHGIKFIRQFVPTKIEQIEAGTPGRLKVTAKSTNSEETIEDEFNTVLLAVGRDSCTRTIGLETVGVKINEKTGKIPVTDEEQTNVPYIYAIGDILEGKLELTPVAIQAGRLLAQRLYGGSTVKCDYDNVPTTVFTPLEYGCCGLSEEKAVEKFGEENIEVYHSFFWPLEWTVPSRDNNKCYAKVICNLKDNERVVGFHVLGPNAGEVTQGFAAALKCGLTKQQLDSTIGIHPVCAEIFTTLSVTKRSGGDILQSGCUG", "experiment": "qHTS Assay for Inhibitors of Mammalian Selenoprotein Thioredoxin Reductase 1 (TrxR1): qHTS; further: nearly all actives have a fitted effect of over 65% in size", "conditions": "recombinant rTrxR1, NADPH fluorescence consumption, selenite substrate; series mostly up to 114 µM", "in_short": "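Rat TrxR1 (90 nM in the dispensed reagent) was pre-reduced with 400 uM NADPH for 5 min at room temperature, then incubated with compound for 15 min. After 400 uM selenite was added, NADPH fluorescence (Ex 340/Em 450 nm) was followed for 8 min.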"}
{"compound": "COC(=O)c1cscc1S(=O)(=O)Cc1ccccc1", "Potency": "active: 20 µM"}
{"compound": "CCn1cc(C(=O)OCC(=O)Nc2cc(OC)cc(OC)c2)c(=O)c2ccc(C)nc21", "Potency": "inactive"}
{"compound": "COCCN(Cc1cc2cc3c(cc2nc1Cl)OCO3)C(=O)Nc1ccc(F)cc1", "Potency": "inactive"}
{"compound": "CCOc1ccc(NC(=O)c2c(NCc3ccc(C)o3)sc3c2CCCCC3)cc1", "Potency": "inconclusive: 25.1 µM [inhibitor, single point]"}
{"compound": "CCOc1ccccc1NC(=O)c1nc(S(=O)(=O)Cc2ccccc2F)ncc1Cl", "Potency": "inconclusive: 6.31 µM [inhibitor, full curve, poor fit]"}
{"compound": "O=C(COC(=O)c1ccc([N+](=O)[O-])o1)NC1CCCC1", "Potency": "inconclusive: 70.8 µM [inhibitor, single point]"}
{"compound": "Cc1ccc(Cl)cc1N1CCN(C(=O)C2CCN(S(=O)(=O)Cc3ccccc3)CC2)CC1", "Potency": "inactive"}
{"compound": "CCOC(=O)c1cc(-c2ccc(C)o2)nn1CCC#N", "Potency": "inconclusive: 3.55 µM [inhibitor, full curve]"}
{"compound": "COc1cccc(C(=O)NC(=S)Nc2cccnc2)c1", "Potency": "inconclusive: 50.1 µM [inhibitor, partial curve, poor fit]"}
{"compound": "CCn1c(CNC(=O)c2ccc(OC)c(OC)c2)nnc1SCC(=O)Nc1ccc(OC)cc1", "Potency": "inactive"}
{"compound": "CCOC(=O)CSC(=S)NC(=O)c1ccc(OC)cc1", "Potency": "active: 22.4 µM"}
{"compound": "CCOC(=O)c1ccc(NC(=O)CSc2nc(-c3ccc(OC)cc3)cc(C(F)(F)F)c2C#N)cc1", "Potency": "inactive"}
{"compound": "COc1ccc(C)cc1NC(=O)Cn1c(=O)oc2cc(S(=O)(=O)N3CCCCC3)ccc21", "Potency": "inactive"}
{"compound": "Cn1cnc([N+](=O)[O-])c1Cl", "Potency": "inconclusive: 28.2 µM [inhibitor, single point]"}
{"compound": "Cc1sc2ncnc(SCC(=O)Nc3ncccc3O)c2c1C", "Potency": "inconclusive: 7.94 µM [inhibitor, partial curve, poor fit]"}
{"compound": "Cn1cc(/C=C(\\NC(=O)c2ccccc2)C(=O)NCCN2CCOCC2)c2ccccc21", "Potency": "inconclusive: 79.4 µM [inhibitor, partial curve]"}
{"compound": "CC(=O)c1ccc(OCCCC(=O)n2nnc3ccccc32)cc1", "Potency": "inconclusive: 14.1 µM [inhibitor, partial curve]"}
{"compound": "Cc1c(C#N)c2ccccc2n1C", "Potency": "inactive"}
{"compound": "CC(=O)Nc1ccc(S(=O)(=O)NCCC(=O)OCC(=O)N2CCN(C(=O)c3ccco3)CC2)cc1", "Potency": "inconclusive: 70.8 µM [inhibitor, single point]"}
{"compound": "Oc1c(Cl)cc(Cl)cc1/C=N/c1nccs1", "Potency": "inconclusive: 28.2 µM [inhibitor, full curve, poor fit]"}
{"compound": "O=C(CCc1ccccc1)NC(=S)Nc1ccccc1Br", "Potency": "inconclusive: 39.8 µM [inhibitor, partial curve]"}
{"compound": "NC(=S)c1ccc[n+]([C@@H]2O[C@@H](COP(=O)([O-])OP(=O)(O)OC[C@H]3O[C@@H](n4cnc5c(N)ncnc54)[C@H](OP(=O)(O)O)[C@H]3O)C(O)C2O)c1", "note": "(some centres not stated)", "Potency": "inconclusive: 42.3 µM [inhibitor, single point]"}
{"compound": "O=C(COC(=O)/C=C/c1cccs1)Nc1nc(-c2ccccc2)cs1", "Potency": "active: 56.2 µM"}
{"compound": "CSCCC(NC(=O)c1cccc(S(=O)(=O)N2CCOCC2)c1)C(=O)Nc1cccc(C)c1", "note": "(configuration not stated)", "Potency": "inconclusive: 89.1 µM [inhibitor, partial curve, poor fit]"}
{"compound": "CCN1CCN(Cc2cccc(Oc3ccccc3)c2)CC1", "Potency": "inactive"}
{"compound": "COc1ccc(C(=O)CCN2CCCC(C)C2)cc1", "note": "(configuration not stated)", "Potency": "inconclusive: 0.562 µM [inhibitor, full curve, poor fit]"}
{"compound": "CCn1c(=O)c2cc(C(=O)NC3CCC(C)CC3)sc2c2ccccc21", "note": "(configuration not stated)", "Potency": "inactive"}
{"compound": "COCCNc1cc(C)nc2c3c(C)cc(C)nc3nn12", "Potency": "inconclusive: 39.8 µM [inhibitor, single point]"}
{"compound": "O=C1N/C(=N\\N=C\\c2cccs2)SC1Cc1cccc(Cl)c1", "note": "(configuration not stated)", "Potency": "inactive"}
{"compound": "COc1cc2ccc3c(CCN(C)C)cc(OC)c(OC)c3c2cc1OC", "Potency": "inactive"}
{"compound": "O=C(O)CNC(=O)C(CS)Cc1ccccc1", "note": "(configuration not stated)", "Potency": "inactive"}
{"compound": "CCOC(=O)c1nn(-c2ccc(Cl)cc2)c2nc(-c3ccc(C)cc3)c(C#N)c(=O)n12", "Potency": "inactive"}
{"compound": "Cc1ccoc1C(=O)NCCCNC(=O)c1occc1C", "Potency": "inconclusive: 89.1 µM [inhibitor, partial curve, poor fit]"}
{"compound": "Cc1cc(C(=O)CSc2nc3ccccc3[nH]2)c(C)n1C", "Potency": "inconclusive: 25.1 µM [inhibitor, partial curve, poor fit]"}
{"compound": "Cc1ccc(C(=O)O/N=C(\\N)c2cccnc2)cc1[N+](=O)[O-]", "Potency": "inactive"}
{"compound": "COc1ccc(CCCc2nnc(SCC(=O)Nc3ccc(F)cc3)o2)cc1C", "Potency": "inactive"}
{"compound": "Cc1cc(NC(=O)/C=C/C(=O)N(c2ccccc2C)C(C(=O)NC2CCCC2)c2ccc(F)cc2)no1", "note": "(configuration not stated)", "Potency": "inconclusive: 17.8 µM [inhibitor, full curve]"}
{"compound": "COc1cc(/C=C2\\C(=N)N3N=CSC3=NC2=O)ccc1OS(=O)(=O)c1ccccc1", "Potency": "inactive"}
{"compound": "O=C(NCSc1ccncn1)c1ccccc1", "Potency": "inconclusive: 12.6 µM [inhibitor, full curve, poor fit]"}
{"compound": "Cc1noc(C)c1-c1ccc2nc[nH]c(=O)c2c1", "Potency": "inconclusive: 70.8 µM [inhibitor, partial curve]"}
{"compound": "Brc1ccccc1C1=Nn2c(nnc2-c2ccco2)SC1", "Potency": "inconclusive: 79.4 µM [inhibitor, single point]"}
{"compound": "CC(C)C(NC(=O)c1ccc(C(C)(C)C)cc1)C(=O)N1CCCC1", "note": "(configuration not stated)", "Potency": "inactive"}
{"compound": "COc1ccc(C(=O)NC(=S)Nc2ccc(N3CCOCC3)cc2)cc1Cl", "Potency": "inconclusive: 44.7 µM [inhibitor, partial curve]"}
{"compound": "CC(=O)c1cc(NC(=O)c2ccccc2)c(=O)oc1C", "Potency": "inactive"}
{"compound": "O=C(OCn1ncc(Cl)c(Cl)c1=O)c1ccc(C(F)(F)F)cc1", "Potency": "active: 17.8 µM"}
{"compound": "COc1ccc(C2OC34CCCCC3C(C#N)(C#N)C2(C#N)C(=N)O4)cc1", "note": "(configuration not stated)", "Potency": "inconclusive: 70.8 µM [inhibitor, single point]"}
{"compound": "CCCn1c(=N)c(C(=O)NCc2cccnc2)cc2c(=O)n3ccccc3nc21", "Potency": "inconclusive: 50.1 µM [inhibitor, partial curve, poor fit]"}
{"compound": "O=C1C=CC(=O)N1Cc1cccnc1", "Potency": "active: 79.4 µM"}
{"compound": "CN1CCN(C2=C(Cl)C(=O)C(c3cnc(N4CCCCC4)s3)=C(Cl)C2=O)CC1", "Potency": "inconclusive: 0.355 µM [inhibitor, full curve, poor fit]"}
{"compound": "COc1ccccc1Nc1ncc(-c2cccs2)s1", "Potency": "inconclusive: 5.62 µM [inhibitor, full curve, poor fit]"}
{"compound": "COCC(C)N=C1NN=C(c2cc(C)n(Cc3ccccc3Cl)c2C)CS1", "note": "(configuration not stated)", "Potency": "inactive"}
{"compound": "CCCC(=O)Nc1cccc(-c2cn3cccnc3n2)c1", "Potency": "inconclusive: 89.1 µM [inhibitor, single point]"}
{"compound": "CCCCN1C(=O)CC(Sc2ccccc2C(=O)O)C1=O", "note": "(configuration not stated)", "Potency": "active: 15.8 µM"}
{"compound": "Cc1occc1-c1nnc(SCC(=O)N2CCCC(C)C2)o1", "note": "(configuration not stated)", "Potency": "inconclusive: 5.01 µM [inhibitor, partial curve, poor fit]"}
{"compound": "S=c1[nH]nc(-c2cc(-c3ccco3)[nH]n2)n1-c1ccccc1Cl", "Potency": "inconclusive: 63.1 µM [inhibitor, partial curve, poor fit]"}
{"compound": "O=C(COC(=O)CCN1C(=O)/C(=C\\C=C\\c2ccccc2)SC1=S)Nc1cc(F)ccc1F", "Potency": "inactive"}
{"compound": "CC(C(=O)c1ccccc1)[n+]1cccc(Br)c1", "note": "(configuration not stated)", "Potency": "inconclusive: 35.5 µM [inhibitor, partial curve]"}
{"compound": "O=C(Nc1ccc(F)cc1F)c1cc(-c2ccco2)nc2ccccc12", "Potency": "inconclusive: 10 µM [inhibitor, full curve, poor fit]"}
{"compound": "COc1ccc(C(C(=O)NC2CCCCC2)N(Cc2cccs2)C(=O)Cc2c[nH]c3ccccc23)cc1OC", "note": "(configuration not stated)", "Potency": "inactive"}
{"compound": "COC(=O)C(=CC(=CN(C)C)C=C(C(=O)OC)C(=O)OC)C(=O)OC", "Potency": "inconclusive: 12.6 µM [inhibitor, partial curve]"}
{"compound": "CCOc1ccc(C2NC(=O)C(C#N)=C(S)N2c2ccc(C)cc2)cc1OC", "note": "(configuration not stated)", "Potency": "inactive"}
{"compound": "CCOC(=O)C1C(=O)NC(N2CCN(Cc3ccccc3)CC2)=NC1c1ccccc1", "note": "(configuration not stated)", "Potency": "inactive"}
{"compound": "O=c1cc(C(O)C[N+](=O)[O-])occ1OCc1ccccc1", "note": "(configuration not stated)", "Potency": "inconclusive: 28.2 µM [inhibitor, partial curve, poor fit]"}
{"compound": "CN(C)S(=O)(=O)c1cccc(-c2nnc(SCc3ccc4c(c3)OCCO4)o2)c1", "Potency": "inconclusive: 3.55 µM [inhibitor, single point]"}
{"compound": "Cc1ccc(N(C(=O)CNC(=O)c2ccco2)C(C(=O)NC2CCCC2)c2cccnc2)cc1C", "note": "(configuration not stated)", "Potency": "inconclusive: 28.2 µM [inhibitor, single point]"}
{"compound": "Cc1ccc(-c2nc(CS(=O)CC(=O)N3CCN(c4ccc(Cl)cc4)CC3)c(C)o2)cc1", "note": "(configuration not stated)", "Potency": "inactive"}
{"compound": "N/C(=N\\OC(=O)c1cccs1)C1(c2ccc(Cl)cc2Cl)CC1", "Potency": "inconclusive: 5.01 µM [inhibitor, single point]"}
{"compound": "COc1cc(-c2nc3c4ccccc4nc(=S)n3[nH]2)cc(OC)c1OC", "Potency": "inconclusive: 8.91 µM [inhibitor, partial curve]"}
{"compound": "O=C(Nc1ccccc1Cl)N1CCN(c2ccc3nnc(-c4ccc(F)cc4)n3n2)CC1", "Potency": "inactive"}
{"compound": "Cc1cc(O)c(C=Nc2ccc(Cl)cn2)c(=O)o1", "Potency": "inconclusive: 63.1 µM [inhibitor, single point]"}
{"compound": "CCOC(=O)c1sc2nc(-c3ccco3)c3c(c2c1N)CC(C)(C)OC3", "Potency": "active: 7.94 µM"}
{"compound": "Cc1cc(C)c(S(=O)(=O)NCC(c2cccs2)S(=O)(=O)c2ccccc2)c(C)c1", "note": "(configuration not stated)", "Potency": "active: 2.51 µM"}
